The text below walks through data of publication PMC2805635.

Experiment [1] has as its target PP1a (catalytic subunit of protein phosphatase PP1) captured on microcystin sepharose (human (endogenous in BJAB)) (UniProt P62136). The experiment can be described thus: pull-down.
Experiment [2] addresses Gal4 DNA binding domain fused to the entire EBNA3C ORF (aa1-992), pAS1-EBNA3C (1-992) (Epstein-Barr virus) (UniProt P03204). The experiment can be described thus: two-hybrid.
The target of experiment [3] is pAS EBNA3C aa365-545 (Epstein-Barr virus) (UniProt P03204). Briefly: two-hybrid.
Experiment [4] addresses Flag-tagged full length Gadd34 (psg5-Flag-Gadd34 1-674) (UniProt O75807). The experiment can be described thus: co-IP.
Experiment [5] addresses psg5-Flag-Gadd34 180-483 (UniProt O75807). Briefly: co-IP.
Experiment [6] deals with psg5-Flag-Gadd34 180-610 (UniProt O75807). The experiment can be described thus: co-IP.
For experiment [7], the target named is psg5-Flag-Gadd34 180-674 (UniProt O75807). The experiment can be described thus: co-IP.

These are yes or no findings as the source states them, for the method shown. For some assays here: In cells and extracts the contact can be indirect. Some results given as binding are weak or reduced against the parent protein; the word gives no strength.

As for “Gadd34 of BJAB cells (from UniProt O75807 1-674)”, the binding result in experiment [1] was “binds”.

As to “pACT-Gadd34 aa395-674 (from UniProt O75807 395-674) (domain or fragment)”, the binding result in experiment [2] and in experiment [3] was “binds” throughout.

Take SUMO-3 (from UniProt P55854 1-103): the binding entry in experiment [2] and in experiment [3] was “binds” throughout.

“full length RBP-J-Kappa, cloned into pACT (from UniProt Q06330 1-500)”: the binding result was “binds” in experiment [2] and “no binding” in experiment [3].

In the case of “EBNA3C expressed from psg5-EBNA3C (from UniProt P03204 11-992)”, the binding result was “binds” in experiment [4], “no binding” in experiment [5], “binds” in experiment [6] and “binds” in experiment [7].
